Variants at the floor of the assay are shown more often than the library holds them.
B1: TPR 5TU (parent)
chain: GGAUCUUCUCGAUCUAACAAAAAAGACAAAUCUGCCACAAAGCUUGAGAGCAUCUUCGGAUGCAGAGGCGGCAGCCUUCGGUGGCGCGAUAGCGCCAACGUUCUCAACUAUGACACGCAAAACGCGUGCUCCGUUGAAUGGAGUUUAUCAUG

Variants of: B1
Assay: polymerase ribozyme fitness, log enrichment relative to wild type (log ratio); higher = more active; in vitro selection for triplet polymerase activity
How it was run: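 PCR was used to build mutant libraries for each subunit of a heterodimeric triplet polymerase ribozyme, which were then transcribed. A single in vitro selection round, in triplicate, used a frozen incubation at −7 °C and recovered extended constructs by gel excision, streptavidin beads and RT-PCR. Fitness is the logarithm of genotype enrichment relative to wild-type enrichment, averaged over replicates with inverse-variance weights. The logarithm is base 2, and after Illumina sequencing only genotypes with ≥10 input reads and ≥1 read per output were kept.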

| Variant | polymerase ribozyme fitness (log ratio) |
| --- | --- |
| U13A | -0.225 |
| U13G | -0.261 |
| U13C | -0.269 |
| A12G G25U U53A G59C C96G C99U C116U G128A | ≤ -4.2 |
| U13C A30C G70A C79A C95U C96A C118A G126U | ≤ -4.2 |
| A12G U44A G46A A66C G86A C93A A97U A138G A142G | ≤ -4.2 |
| A12U U55G A142C | -1.46 |
| U13A A28U C57G C85G U127A | ≤ -4.2 |
| A12U A17C G59A G67U G83C U130G C132U U134C A150C | ≤ -4.2 |
| A12U U13A A52C C87A G94U U134A A138U | ≤ -4.2 |
| U13C G50C A73G C96G A107U A119U U148C G152A | ≤ -4.2 |
| U13A A30U U33G G46A G86A A91U A119G | ≤ -4.2 |
| A12G U13A U31A C57A G65A C85G | ≤ -4.2 |
| U13C A47G C69U C87U A97C A106U A121G C123G A142C | ≤ -4.2 |
| U13A G58A C87A G133A G143C | ≤ -4.2 |
| A12U U102G | -3.28 |
| A12U A39U A150C | ≤ -4.2 |
| U13C C18A A40C U53A G83A | -2.56 |
| A12G G25A C87G C116A U148G | ≤ -4.2 |
| U13A U33A A41C A49U C85U | ≤ -4.2 |
| A12G U61A A73U U77A | ≤ -4.2 |

| Variant | polymerase ribozyme fitness (log ratio) |
| --- | --- |
| A12G U56A U144A | 0.103 |
| U13A C76U C105G C114U | ≤ -4.2 |
| A12U U56C G59A G88C | ≤ -4.2 |
| U13C A22U A24U U53A A98U | -1.6 |
| U13A U15C C87A | ≤ -4.2 |
| U13A A28U C43U G65A A106G | ≤ -4.2 |
| A12U C79U C93G C132G | ≤ -4.2 |
| A12U A19C A24C A73G G81C G140U A150C | ≤ -4.2 |
| U13A C35U C57U | -1.42 |
| A12U U45A A64C C93A | ≤ -4.2 |
| A12U C14G A22C A47C U56A C75G G84U C99A C105A | ≤ -4.2 |
| A12U C14U A28G A41C A49G C51U A73C C93G U101G | ≤ -4.2 |
| A12U U53A C57U G92U C99A A120U A150G | ≤ -4.2 |
| A12G U53A U56A U82G A91U G117C A142G | -4.16 |
| A12U C35U A52G C85A A91U C96A U109G | ≤ -4.2 |
| A12G U15G C69A C75U A106G A120G | -2.52 |
| A12U A20G A52U G141A | -3.17 |
| A12U A91C C99U G124C G140U A142C | ≤ -4.2 |
| A12G G50A G83A A91G C108A A121C | ≤ -4.2 |
| U13C U148C | -2.48 |
| U13A G58C C87G | ≤ -4.2 |

| Variant | polymerase ribozyme fitness (log ratio) |
| --- | --- |
| U13A C27G U82G C96U A120G | ≤ -4.2 |
| U13A A16G G86U | -2.89 |
| U13C A26U U56A G58C C63A G74U G88C A97U | ≤ -4.2 |
| U13C U15G A39G A110G A142U | ≤ -4.2 |
| A12U A22U A28U C35A G141A | ≤ -4.2 |
| U13A U44G C85A A142G | ≤ -4.2 |
| A12G G80A C118U A119C A120G G143U | -3.12 |
| A12U U55G A60U G83C A137U G141U | ≤ -4.2 |
| U13C G48C A60C U61A C75A G92U C108A C114U | ≤ -4.2 |
| U13A A17U C57G A91C C93A G94A A115G G124U G126C | ≤ -4.2 |
| U13C C14U U77G G84U U145G U148A | ≤ -4.2 |
| A12U A21U U55A A66U C75G C87A G128U G140A | ≤ -4.2 |
| A12G U144G | 0.592 |
| A12G U13C C38U G58A A73U | -1.35 |
| U13A A29C | ≤ -4.2 |
| A12G G92A U127G C132U G136U U146C | ≤ -4.2 |
| U13C G50U G86C A89U C96A C116A | ≤ -4.2 |
| A12U A23G G34C G83C C87U U101G G136A | ≤ -4.2 |
| A12G G141C | -0.0174 |
| U13C U61C C85U A89C U144A | ≤ -4.2 |
| U13C C38G U53A U82G G92A C105G C114U G128C U151C | ≤ -4.2 |

| Variant | polymerase ribozyme fitness (log ratio) |
| --- | --- |
| A12G U90G G126A G140C | ≤ -4.2 |
| U13A A19C A29G A52C A115G G140U | ≤ -4.2 |
| A12U G50U G83C C103A | ≤ -4.2 |
| U13A A29U U44A C72G C96U A97U | ≤ -4.2 |
| U13A A17G A49C A107G | ≤ -4.2 |
| A12U C54G G80U C87U C105G U145A | ≤ -4.2 |
| U13C G126A G140C | ≤ -4.2 |
| A12G U55A G71A G80C | ≤ -4.2 |
| U13A C85U A115C G128U | ≤ -4.2 |
| A12U A24U A66C C87G G88A C116U G124U A147U | ≤ -4.2 |
| A12U A28C A66U G86U | ≤ -4.2 |
| A12G G83A G126U U134C U148G | ≤ -4.2 |
| A12U A20C A47C C72U C85G G117A A150G | ≤ -4.2 |
| A12U U44G C76G C87A U134A | ≤ -4.2 |
| A12U A24C G46A A52G G141U A147G | ≤ -4.2 |
| A12U G42C C72G C76A A91U A120U U144C | ≤ -4.2 |
| A12U U45A G50A C69G C93U | ≤ -4.2 |
| A12U C43U C63U U90C C105G G140A | ≤ -4.2 |
| U13A C105A A107C U134A | ≤ -4.2 |
| A12G G92A U127A U139A G143A | ≤ -4.2 |
| A12U G50A C75U G83A G88C | ≤ -4.2 |
